{
  "source": "PubChem BioAssay AID1159614",
  "about": "(National Center for Advancing Translational Sciences (NCATS), 2016)",
  "note": "Out of some 45,000 compounds screened, about 65 (0.1%) were called active. Calls come from the whole dose curve; as a rule, active = well fitted activation curve with a large enough effect; inconclusive = small, poorly fitted or top-dose-only effect; inactive = no such curve, though single readings can be large or run the other way. Some of the results follow.",
  "data": [
    {"molecular_target": "Galactocerebrosidase (Homo sapiens) (UniProt P54803)", "sequence (P54803 whole entry, looked up)": "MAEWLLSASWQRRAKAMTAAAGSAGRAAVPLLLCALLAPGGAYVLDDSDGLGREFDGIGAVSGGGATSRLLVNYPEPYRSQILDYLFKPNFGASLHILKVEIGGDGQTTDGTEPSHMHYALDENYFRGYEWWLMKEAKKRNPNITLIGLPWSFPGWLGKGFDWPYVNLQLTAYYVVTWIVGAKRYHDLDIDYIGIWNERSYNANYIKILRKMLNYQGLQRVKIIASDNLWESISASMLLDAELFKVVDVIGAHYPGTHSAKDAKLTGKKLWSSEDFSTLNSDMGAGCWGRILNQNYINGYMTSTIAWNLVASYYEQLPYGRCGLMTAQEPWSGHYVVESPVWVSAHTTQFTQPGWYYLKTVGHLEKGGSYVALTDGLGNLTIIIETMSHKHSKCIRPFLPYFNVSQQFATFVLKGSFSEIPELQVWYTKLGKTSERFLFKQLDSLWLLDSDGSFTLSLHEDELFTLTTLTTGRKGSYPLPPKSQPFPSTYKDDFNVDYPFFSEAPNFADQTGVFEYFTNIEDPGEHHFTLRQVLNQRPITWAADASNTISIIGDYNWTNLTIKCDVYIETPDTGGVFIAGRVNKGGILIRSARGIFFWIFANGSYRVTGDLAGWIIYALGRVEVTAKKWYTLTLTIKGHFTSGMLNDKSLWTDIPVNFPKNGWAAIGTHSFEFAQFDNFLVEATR", "experiment": "A Novel Cell-Based Assay to Identify Small Molecules for B -Galactocerebrosidase; note: 0% is about no effect; nearly all actives have a fitted effect of over 65% in size", "conditions": "145M-Twi-hGALC-G270D cells (Twitcher mouse brain line with human GALC G270D), HMU-beta-Gal fluorescence, 48 h; series mostly up to 57.5 µM; activation: at the top concentration", "method_in_brief": "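Brain-derived Twitcher mouse 145M-Twi cells stably expressing human GALC-G270D or wild-type GALC, treated live, then residual GALC activity read by fluorescence of HMU-b-Gal substrate (0.1 mM final) in citrate-phosphate buffer pH 5.2 with sodium taurocholate. Signal increase indicates enhancement.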", "values": [
      {"smiles": "CCCn1c(=O)c2sccc2n2c(CCCC(=O)Nc3ccc(C)c(F)c3)nnc12", "activation": "inactive: -11.8%"},
      {"smiles": "CCCCN(CC)C(=O)Nc1ccc2c(c1)N(C)C(=O)c1ccccc1S2", "activation": "inactive: -12.7%"},
      {"smiles": "COc1ccc(C(=O)N2CCc3cc(OC)c(OC)cc3C2COc2ccccc2OC)cc1", "note": "(configuration not stated)", "activation": "inactive: -19%"},
      {"smiles": "CC(=O)Nc1ccc(S(=O)(=O)NC2(C(F)(F)F)NC(=O)N(c3ccc(Cl)cc3)C2=O)cc1", "note": "(configuration not stated)", "activation": "inactive: -16.4%"},
      {"smiles": "COC(=O)c1c(C)sc(-c2c(-c3cccc(OC)c3)[nH]c3c2c(=O)[nH]c(=O)n3C)c1O", "activation": "inactive: 0.423%"},
      {"smiles": "Cc1ccc(C(=O)COC(=O)c2cc(-c3ccc(Cl)cc3)nc3ccccc23)cc1", "activation": "inactive: -1.8%"},
      {"smiles": "COc1ccc(-c2noc(CN3CCN(c4ccccc4OC)CC3)n2)cc1OC", "activation": "inactive: -12.3%"},
      {"smiles": "Cn1cc(S(=O)(=O)c2ccccc2)c(=O)c2cc(F)c(N3CCCCC3)cc21", "activation": "inactive: -18.7%"},
      {"smiles": "Cc1noc2nc(C(=O)O)nc(N3CCCCC3)c12", "activation": "inactive: -2.72%"},
      {"smiles": "COc1ccc(OC)c(-c2noc(CSc3nnc(Cc4ccccc4)n3-c3cccc(C)c3)n2)c1", "activation": "inactive: -11.9%"},
      {"smiles": "CCc1nnc(SCC(=O)Nc2cc(Cl)c(OC)cc2OC)c2cc3oc(C)cc3n12", "activation": "inactive: -16%"},
      {"smiles": "COc1cccc(N2CC(NC(=O)COc3ccc4ccccc4c3)CC2=O)c1", "note": "(configuration not stated)", "activation": "inactive: -19.5%"},
      {"smiles": "CC1CCC(NC(=O)Cn2ncc3c4ccccc4n(Cc4ccc(Cl)cc4)c3c2=O)CC1", "note": "(configuration not stated)", "activation": "inactive: -13.4%"},
      {"smiles": "CC(=O)c1ccc(NC(=O)CCn2nc(C)c(S(=O)(=O)N3CCC(C)CC3)c2C)cc1", "activation": "inactive: 2.97%"},
      {"smiles": "Cc1ccc(NC(=O)CN2C(=O)CCc3ccccc32)cc1C", "activation": "inactive: -15.9%"},
      {"smiles": "Cc1ccc(OCc2nc(-c3ccc(C(=O)NCCc4ccc(Cl)cc4)cc3)oc2C)cc1", "activation": "inactive: -20.5%"},
      {"smiles": "CCOC(=O)c1c(C)[nH]c(C)c1S(=O)(=O)N1CCCC(C(=O)N2CCN(c3ccccc3F)CC2)C1", "note": "(configuration not stated)", "activation": "inactive: -20.5%"},
      {"smiles": "COc1ccc(N2CCN(Cc3nc4c(c(=O)[nH]c(=O)n4C)n3Cc3ccc(C)cc3)CC2)cc1", "activation": "inactive: 19.1%"},
      {"smiles": "COc1ccc(N(CC(=O)NC(C)c2ccccc2)S(=O)(=O)c2c(C)nn(C)c2C)cc1", "note": "(configuration not stated)", "activation": "inactive: -7.74%"},
      {"smiles": "CCc1nn(CC(=O)N2CCN(c3cccc(OC)c3)CC2)c(=O)c2cc3occc3n12", "activation": "inactive: -19.2%"},
      {"smiles": "Cc1ccccc1CN1C(=O)c2ccccc2Sc2ccc(C(=O)NC3CCCCC3)cc21", "activation": "inactive: -14%"},
      {"smiles": "COc1ccc(NC(=O)c2nn(C)c3c2CS(=O)(=O)c2ccccc2-3)cc1Cl", "activation": "inactive: -2.76%"},
      {"smiles": "CC(C)Nc1ccc(-c2nc(-c3ccncc3)no2)cc1[N+](=O)[O-]", "activation": "inactive: -15.1%"},
      {"smiles": "COc1ccc(S(=O)(=O)c2cnc3cc(OC)c(OC)cc3c2N2CCCC(C)C2)cc1", "note": "(configuration not stated)", "activation": "inactive: -6.78%"},
      {"smiles": "COc1ccccc1C(=O)N(Cc1nc(-c2cccc(C)c2)no1)C(C)C", "activation": "inactive: -27.9%"},
      {"smiles": "CC1CCN(CC2CCN(C(=O)NCc3ccc(F)cc3)CC2)CC1", "activation": "inactive: -6.25%"},
      {"smiles": "O=C(O)c1ccc(Cn2cnc3cccnc32)cc1", "activation": "inactive: -11.1%"},
      {"smiles": "CC1CN(C(=O)CCC(=O)NCc2cccc(Cl)c2)c2ccccc2S1", "note": "(configuration not stated)", "activation": "inactive: 5.14%"},
      {"smiles": "CCc1ccc(OCc2nc(-c3ccc(-n4cccc4)cc3)no2)cc1", "activation": "inactive: -9.24%"},
      {"smiles": "CCc1nc(-c2cc(S(=O)(=O)N3CCN(c4ccc(OC)cc4)CC3)ccc2OC)no1", "activation": "inactive: -21.2%"},
      {"smiles": "CC(C)CCOc1ccc(C2N=C(N)Nc3nc4ccccc4n32)cc1", "note": "(configuration not stated)", "activation": "inactive: 0.725%"},
      {"smiles": "O=S(=O)(NCCc1csc2nc(-c3ccccc3)nn12)c1cccs1", "activation": "inactive: -13%"},
      {"smiles": "CCOc1ccc(-c2cn3c(n2)sc2cc(C(=O)NCCc4ccc(OC)cc4OC)ccc23)cc1", "activation": "inactive: 3.67%"},
      {"smiles": "O=C(NCc1ccccc1)c1nc(S(=O)(=O)Cc2ccc(F)cc2)ncc1Cl", "activation": "inactive: -13%"},
      {"smiles": "CCOc1ccc(C2C(C(=O)Nc3ccccc3)=C(C)Nc3nc(SCc4cccc(OC)c4)nn32)cc1", "note": "(configuration not stated)", "activation": "inactive: -14.4%"},
      {"smiles": "Cc1ccc(/C=C/c2onc(C)c2S(=O)(=O)N2CCC(C(=O)N3CCN(c4cccc(C)c4)C(C)C3)CC2)cc1", "note": "(configuration not stated)", "activation": "inactive: -14.9%"},
      {"smiles": "CCCCN(CC)C(=O)CSc1nc2n[nH]c(C)c2c(=N)n1-c1cccc(C)c1", "activation": "inactive: -10.7%"},
      {"smiles": "COc1cccc2c1cc1c(=O)n(CC(=O)N3CCN(c4cccc(C(F)(F)F)c4)CC3)nc(C)n12", "activation": "inactive: 18.3%"},
      {"smiles": "CCOc1ccccc1NC(=O)C(CC(C)C)NC(=O)C1CCC(C)CC1", "note": "(configuration not stated)", "activation": "inactive: -14.9%"},
      {"smiles": "CC(Oc1c(Cl)cccc1Cl)C1=NCCN1", "note": "(configuration not stated)", "activation": "inactive: -8.56%"},
      {"smiles": "COc1ccc(-n2nc3ccc(NC(=O)c4ccc(C#N)cc4F)cc3n2)cc1Cl", "activation": "inactive: -12.7%"},
      {"smiles": "Cc1ccc(NC(=O)CCc2c(C)nn(-c3ccc(N4CCOCC4)nn3)c2C)c(C)c1", "activation": "inactive: -15.8%"},
      {"smiles": "O=C(COc1ccccc1Cl)Nc1nnc(S(=O)(=O)N2CCCC2)s1", "activation": "inactive: -9.58%"},
      {"smiles": "O=S(c1cc(Cl)cc(Cl)c1O)c1cc(Cl)cc(Cl)c1O", "activation": "inactive: -14.4%"},
      {"smiles": "COc1cccc(COC(=O)c2ccc(-c3nnn(Cc4cccc(OC)c4)n3)cc2)c1", "activation": "inactive: -12.9%"},
      {"smiles": "COc1ccc(Cn2c(CO)cnc2SCC(=O)Nc2ccc3c(c2)OCCO3)cc1", "activation": "inactive: -24.9%"},
      {"smiles": "O=C(Nc1cccs1)Nc1ccc(F)cc1F", "activation": "inactive: -16.8%"},
      {"smiles": "O=C(Nc1cccc(C(F)(F)F)c1)c1cc(-c2ccc(Cl)s2)nc2ccccc12", "activation": "inactive: -10.9%"},
      {"smiles": "O=C(O)Cn1c(-c2cccs2)cc2cc(Cl)ccc21", "activation": "inactive: -17.7%"},
      {"smiles": "COc1cccc2sc(NC(=O)CS(=O)(=O)c3ccc(C)cc3)nc12", "activation": "inactive: -7.3%"},
      {"smiles": "CCOc1ccc(NC2SC(=O)N(Cc3ccccc3)C2=O)cc1", "note": "(configuration not stated)", "activation": "inactive: -17.6%"},
      {"smiles": "CC1CCc2c(sc3nnn(Cc4cccc(C(=O)OC(C)C)c4)c(=O)c23)C1", "note": "(configuration not stated)", "activation": "inactive: 0.544%"},
      {"smiles": "CN(C)CC/C=C1\\c2ccccc2COc2ccccc21", "activation": "inactive: 0.411%"},
      {"smiles": "CC(=O)N1CCc2c(sc3c2c(=O)n(-c2ccc(F)cc2)c(=O)n3Cc2ccc(C#N)cc2)C1", "activation": "inactive: -17.9%"},
      {"smiles": "COCCn1ccc2c(OCC(=O)Nc3c(C)cc(C)cc3C)cccc2c1=O", "activation": "inactive: -10.7%"},
      {"smiles": "COCCCNC(=O)Cn1nc(N2CCN(c3ccccc3)CC2)ccc1=O", "activation": "inactive: -4.65%"},
      {"smiles": "Cn1c(-n2cccc2)c(-c2c(-c3ccc(F)cc3)[nH]c3c2c(=O)n(C)c(=O)n3C)c(=O)n(C)c1=O", "activation": "inactive: 26.9%"},
      {"smiles": "CCCSc1oc(-c2ccco2)nc1S(=O)(=O)c1ccc(Br)cc1", "activation": "inactive: -13.8%"},
      {"smiles": "Cc1ccc(S(=O)(=O)n2nc(-c3ccc(Cl)cc3)nc2NCc2ccccc2)cc1", "activation": "inactive: -6.45%"},
      {"smiles": "COc1ccc(-n2ccnc(NCc3cccs3)c2=O)cc1OC", "activation": "inactive: -7.62%"},
      {"smiles": "CCn1c(C(=O)NCc2ccccc2OC)cc2sccc21", "activation": "inactive: 4.37%"},
      {"smiles": "CCOc1ccccc1CNC(=O)C1CCN(S(=O)(=O)c2c(C)noc2/C=C/c2ccccc2F)CC1", "activation": "inactive: -7.15%"}
    ]}
  ]
}
